Reference: patent US20240190987A1, “Engineered EpCam Binding Antibodies” (TigaTX, priority 2021, published 2024)

B1: Ab1098: LS2A indinavir binding domain, FIGS. 5A-5E (antibody)
heavy: QVQLVQSGAEVKKPGASVKVSCKASGYTFTSYLMHWVRQHPGQGLEWMGMIHPNSGGTNYAQKFQGRVTMTRDTSTSTVYMELSSLRSEDTAVYYCAMGDYVSRDYWGQGTLVTVSSGGGGSGGGGSGGGGSEIVLTQSPGTLSLSPGERATLSCRASSSVSSSYLHWYQQKPGQAPRLLIYSTSSRATGIPDRFSGSGSGTDFTLTISRLEPEDFAVYYCQQYSGYQFTFGQGTKLEIKGGGGS[human IgG1 Fc with changes left out]
light: DIQMTQSPSSLSASVGDRVTITCSASSSVSSGNFHWYQQKPGKAPKLLIYRTSNLASGVPSRFSGSGSGTDYTLTISSLQPEDFATYYCQQWSGYPYTFGQGTKVEIKRTVAAPSVFIFPPSDEQLKSGTASVVCLLNNFYPREAKVQWKVDNALQSGNSQESVTEQDSKDSTYSLSSTLTLSKADYEKHKVYACEVTHQGLSSPVTKSFNRGEC
modifications: knob heavy chain missing; REGION 1..471: note = Ab1098 HC Hole scFv-Fc; REGION 1..215: note = Ab1098 LC Knob
B2: Ab1117: LS2A indinavir binding domain, FIGS. 5A-5E (protein)
scFv-Fc: QVQLVQSGAEVKKPGASVKVSCKASGYTFTSYWMHWVRQHPGQGLEWMGMIHPNSGGTNYAQKFQGRVTMTRDTSTSTVYMELSSLRSEDTAVYYCAMGDYVSRDAWGQGTLVTVSSGGGGSGGGGSGGGGSEIVLTQSPGTLSLSPGERATLSCRASSSVSSSYLHWYQQKPGQAPRLLIYSTSSRATGIPDRFSGSGSGTDFTLTISRLEPEDFAVYYCQQYSGYQFTFGQGTKLEIKGGGGS[human IgG1 Fc with changes left out]
light: B1 light
heavy: EVQLVESGGGLVQPGGSLRLSCAASGFTFSNYWMNWVRQAPGKGLEWVAQIRVKSENFATHYADSVKGRFTISRDDSKSTVYLQMNSLRAEDTAVYYCTLYDGFSWGQGTLVTVSSASTKGPSVFPLAPSSKSTSGGTAALGCLVKDYFPEPVTVSWNSGALTSGVHTFPAVLQSSGLYSLSSVVTVPSSSLGTQTYICNVNHKPSNTKVDKKV[human IgG1 Fc with changes left out]
B3: Ab1121: LS2A indinavir binding domain, FIGS. 5A-5E (protein)
scFv-Fc: QVQLVQSGAEVKKPGASVKVSCIASGYTFTSYWMHWVRQHPGQGLEWMGMIHPNSGGTNYAQKFQGRVTMTRDTSTSTVYMELSSLRSEDTAVYYCAMGDYVSRDYWGQGTLVTVSSGGGGSGGGGSGGGGSEIVLTQSPGTLSLSPGERATLSCRASSSVSSSYLHWYQQKPGQAPRLLIYSTSSRATGIPDRFSGSGSGTDFTLTISRLEPEDFAVYYCQQYSGYQFTFGQGTKLEIKGGGGS[human IgG1 Fc with changes left out]
light: B1 light
heavy: EVQLVESGGGLVQPGGSLRLSCAASGFTFSNYWMNWVRQAPGKGLEWVAQIRVKSENFATHYADSVKGRFTISRDDSKSTVYLQMNSLRAEDTAVYYCTLYDGFSWGQGTLVTVSSASTKGPSVFPLAPSSKSTSGGTAALGCLVKDYFPEPVTVSWNSGALTSGVHTFPAVLQSSGLYSLSSVVTVPSSSLGTQTYICNVNHKPSNTKVDKKV[human IgG1 Fc with changes left out]
B4: Ab1125 (protein)
scFv-Fc: QVQLVQSGAEVKKPGASVKVSCKASGYTFTSYWMHWVRQHPGQGLEWMGMIHPNSGGTNYAQKFQGRVTMTRDTSTSTVYMELSSLRSEDTAVYYCAMGDYVSRDYWGQGTLVTVSSGGGGSGGGGSGGGGSEIVLTQSPGTLSLSPGERATLSCRASSSVSSSYLHWYQQKPGQAPRLLIYSTSSRATGIPDRFSGSGSGTDFTLTISRLEPEDFAVYYCQQFSGYQFTFGQGTKLEIKGGGGS[human IgG1 Fc with changes left out]
light: B1 light
heavy: EVQLVESGGGLVQPGGSLRLSCAASGFTFSNYWMNWVRQAPGKGLEWVAQIRVKSENFATHYADSVKGRFTISRDDSKSTVYLQMNSLRAEDTAVYYCTLYDGFSWGQGTLVTVSSASTKGPSVFPLAPSSKSTSGGTAALGCLVKDYFPEPVTVSWNSGALTSGVHTFPAVLQSSGLYSLSSVVTVPSSSLGTQTYICNVNHKPSNTKVDKKV[human IgG1 Fc with changes left out]
B5: Ab1095: LS2A indinavir binding domain, FIGS. 5A-5E (protein)
scFv-Fc: QVQLVQSGAEVKKPGASVKVSCKASGYTFTSYAMHWVRQHPGQGLEWMGMIHPNSGGTNYAQKFQGRVTMTRDTSTSTVYMELSSLRSEDTAVYYCAMGDYVSRDYWGQGTLVTVSSGGGGSGGGGSGGGGSEIVLTQSPGTLSLSPGERATLSCRASSSVSSSYLHWYQQKPGQAPRLLIYSTSSRATGIPDRFSGSGSGTDFTLTISRLEPEDFAVYYCQQYSGYQFTFGQGTKLEIKGGGGS[human IgG1 Fc with changes left out]
light: B1 light
heavy: EVQLVESGGGLVQPGGSLRLSCAASGFTFSNYWMNWVRQAPGKGLEWVAQIRVKSENFATHYADSVKGRFTISRDDSKSTVYLQMNSLRAEDTAVYYCTLYDGFSWGQGTLVTVSSASTKGPSVFPLAPSSKSTSGGTAALGCLVKDYFPEPVTVSWNSGALTSGVHTFPAVLQSSGLYSLSSVVTVPSSSLGTQTYICNVNHKPSNTKVDKKV[human IgG1 Fc with changes left out]
B6: Ab1134: anti-CD3 binding domain, FIGS. 7A-7C; CC protein, FIG. 9B (antibody)
heavy 1: EVQLVESGGGLVQPGGSLRLSCAASGFTFSTYAMNWVRQAPGKGLEWVARIRSKYNNYATYYADSVKGRFTISRDDSKSILYLQMNSLRAEDTAVYYCVRHGNFGNSYVSWFAYWGQGTLVTVSSGGGGSGGGGSGGGGSDIQVTQSPSSLSASVGDRVTITCRSSTGAVTTSNYANWVQQKPGKAFKGLIGGTNKLAPGVPSRFSGSLSGDDATLTISSLQPEDFATYYCALWYSNLWVFGQGTKLEIKGGGGS[human IgG1 Fc with changes left out]
heavy 2: EVQLVESGGGLVQPGGSLRLSCAASGFDFSSYSIHWVRQAPGKGLEWVAAISPYYGSTYYADSVKGRFTISADTSKNTAYLQMNSLRAEDTAVYYCARYYEYYKYDLYAGSLGFDYWGQGTLVTVSSASTKGPSVFPLAPSSKSTSGGTAALGCLVKDYFPEPVTVSWNSGALTSGVHTFPAVLQSSGLYSLSSVVTVPSSSLGTQTYICNVNHKPSNTKVDKKVEPKSCDKTHTGGGGSGGEVQLVESGGGLVQPGGSLRLSCAASGFDFSSYSIHWVRQAPGKGLEWVAAISPYYGSTYYADSVKGRFTISADTSKNTAYLQMNSLRAEDTAVYYCARYYEYYKYDLYAGSLGFDYWGQGTLVTVSSASTKGPSVFPLAPSSKSTSGGTAALGCLVKDYFPEPVTVSWNSGALTSGVHTFPAVLQSSGLYSLSSVVTVPSSSLGTQTYICNVNHKPSNTKVDKKV[human IgG1 Fc with changes left out]
light: DIQMTQSPSSLSASVGDRVTITCRASQSVSSAVAWYQQKPGKAPKLLIYSASSLYSGVPSRFSGSRSGTDFTLTISSLQPEDFATYYCQQGGYSLITFGQGTKVEIKRTVAAPSVFIFPPSDSQLKSGTASVVCLLNNFYPREAKVQWKVDNALQSGNSQESVTEQDSKDSTYSLSSTLTLSKADYEKHKVYACEVTHQGLSSPVTKSFNRGEC
modifications: REGION 1..481: note = Ab1134 Knob HC; REGION 1..698: note = Ab1134 Hole HC; REGION 1..214: note = Ab1134 Hole LC
B7: Ab0823: anti-EpCAM binding domain, FIGS. 8A-8C (antibody)
heavy: EVKLEESGGGLVQPGGSMKLSCVASGFTFSNYWMNWVRQSPEKGLEWVAQIRVKSENFATHYAESVKGRFTISRDDSKSSVYLQMNNLRAEDTGIYYCTLYDGFSWGQGTTLTVSSASTKGPSVFPLAPSSKSTSGGTAALGCLVKDYFPEPVTVSWNSGALTSGVHTFPAVLQSSGLYSLSSVVTVPSSSLGTQTYICNVNHKPSNTKVDKKV[human IgG1 Fc with changes left out]
modifications: light chain not cited; REGION 1..446: note = Ab0823 HC
B8: Ab1088: anti-EpCAM T-LITE (CT) antibody, FIGS. 8A-8C, 9C (protein)
light: B1 light
heavy: EVQLVESGGGLVQPGGSLRLSCAASGFTFSNYWMNWVRQAPGKGLEWVAQIRVKSENFATHYADSVKGRFTISRDDSKSTVYLQMNSLRAEDTAVYYCTLYDAFSWGQGTLVTVSSASTKGPSVFPLAPSSKSTSGGTAALGCLVKDYFPEPVTVSWNSGALTSGVHTFPAVLQSSGLYSLSSVVTVPSSSLGTQTYICNVNHKPSNTKVDKKV[human IgG1 Fc with changes left out]
modifications: knob heavy chain missing; REGION 1..215: note = Ab1088 Hole LC; REGION 1..445: note = Ab1088 Hole HC

Experiments:
[1] = BLI binding of LS2A variants to biotin-IDV; details: LS2A R4 variants (Table 21)
Description: In R1 of engineering, point mutations were made to remove an oxidation site, deamidation sites, or a hydrophobic residue. In addition, several murine back mutations were tested to improve humanization. Binding kinetics were measured to biotin-IDV and LS2B Ab0637.
Bio-layer interferometry (BLI) data were measured using an Octet RED384 (ForteBio) instrument. Antigens of interest were immobilized on an AHC biosensor and loaded until a 0.4-0.6-nm signal was achieved. Purified antibodies were used as the analyte premixed with 10 μM Indinavir or 0.05% DMSO vehicle. PBSTB (PBS, pH 7.4, 0.05% Tween-20, 0.2% BSA) was used for all buffers for BLI. Data were analyzed using ForteBio Octet analysis software and kinetic parameters were determined using a 1:1 monovalent binding model.

[2] = Differential scanning fluorimetry (DSF) melting temperature; type: physicochemical
Description: DSF was performed on a LC480 Lightcycler Instrument II (Roche). Purified recombinant protein was diluted to 5 μM in DSF buffer (PBS, pH 7.4, Sypro Orange 5×) with small molecule (10 μM VTX) or vehicle (0.05% DMSO) and then heated with a temperature gradient (0.01° C./s) from 25 to 95° C. Data were continuously acquired at ˜465 nm (excitation) and ˜580 nm (emission). Data was analyzed to generate first derivative curves in which the curve maximum was reported as the melting temperature of the protein.

Molecule	TM (° C.) ([2]; LS2A R4 variants (Table 21)) [°C]	further results
B1	–	Kd [1]: 16 nM
B2	57.5	–
B3	54.7	–
B4	58	–
B5	55.9	–
B6	–	TM (° C.) ([2]; v68-5 R2 variants (Table 24)): 63.7 °C
B7	–	TM (° C.) ([2]; anti-EpCAM M37 clones (Table 25)): 68.5 °C
B8	–	TM (° C.) ([2]; thermostability by DSF, Table 27): 70.1 °C
